The list shows a part of the results. The list includes weakly bound sequences.
What follows are sequences tested against T1, MBP-FoxP3dN (UniProt Q99JB6) (assay: PD-seq (MBP pull-down with sequencing)). Details: 20 mM Tris-HCl pH 7.5, 100 mM NaCl, 1.5 mM MgCl2, 0.4 uM protein, 0.1 uM dsDNA library, 30 min, room temperature, amylose pull-down; high values mean tight binding; double strand, one strand shown.
T1 sequence: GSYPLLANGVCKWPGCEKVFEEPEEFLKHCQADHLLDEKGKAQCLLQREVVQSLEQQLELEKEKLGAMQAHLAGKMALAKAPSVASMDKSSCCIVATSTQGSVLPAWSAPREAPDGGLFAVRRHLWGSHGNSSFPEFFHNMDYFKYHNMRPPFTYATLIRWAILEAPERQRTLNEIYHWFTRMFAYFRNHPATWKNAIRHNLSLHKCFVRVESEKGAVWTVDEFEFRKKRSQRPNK

Row | Sequence | binding signal (RPM ratio (pull-down/input))
1 | GATGATTGTTCTCCCAGCTGATGAATTAGGTCCATCGAGTAAACAAATTTTCCTAATCTTTCTGTTCAAGCGCCATCTAC | 0.371
2 | GATGATTGTTCTCCCAGCTGATGAATTTAGAATTTCGAGTAAACAAATTTTCCTAATCTTTCTGTTCAAGCGCCATCTAC | 1.26
3 | GATGATTGTTCTCCCAGCTGATGAATTCCTAAGCTCGAGTAAACAAATTTTCCTAATCTTTCTGTTCAAGCGCCATCTAC | 0.213
4 | GATGATTGTTCTCCCAGCTGATGAATTTGGTAACTCGAGTAAACAAATTTTCCTAATCTTTCTGTTCAAGCGCCATCTAC | 1.38
5 | GATGATTGTTCTCCCAGCTGATGAATTCCTACGGTCGAGTAAACAAATTTTCCTAATCTTTCTGTTCAAGCGCCATCTAC | 0.213
6 | GATGATTGTTCTCCCAGCTGATGAATTTGATGATTCGAGTAAACAAATTTTCCTAATCTTTCTGTTCAAGCGCCATCTAC | 3.46
7 | GATGATTGTTCTCCCAGCTGATGAATTTCCGAAATCGAGTAAACAAATTTTCCTAATCTTTCTGTTCAAGCGCCATCTAC | 0.293
8 | GATGATTGTTCTCCCAGCTGATGAATTCAACCGATCGAGTAAACAAATTTTCCTAATCTTTCTGTTCAAGCGCCATCTAC | 0.253
9 | GATGATTGTTCTCCCAGCTGATGAATTGGACGTATCGAGTAAACAAATTTTCCTAATCTTTCTGTTCAAGCGCCATCTAC | 0.508
10 | GATGATTGTTCTCCCAGCTGATGAATTACAGTCCTCGAGTAAACAAATTTTCCTAATCTTTCTGTTCAAGCGCCATCTAC | 0.525
11 | GATGATTGTTCTCCCAGCTGATGAATTCCTCTTTTCGAGTAAACAAATTTTCCTAATCTTTCTGTTCAAGCGCCATCTAC | 0.248
12 | GATGATTGTTCTCCCAGCTGATGAATTTGGCTACTCGAGTAAACAAATTTTCCTAATCTTTCTGTTCAAGCGCCATCTAC | 1.71
13 | GATGATTGTTCTCCCAGCTGATGAATTTGATCCTTCGAGTAAACAAATTTTCCTAATCTTTCTGTTCAAGCGCCATCTAC | 0.39
14 | GATGATTGTTCTCCCAGCTGATGAATTTGTTCGATCGAGTAAACAAATTTTCCTAATCTTTCTGTTCAAGCGCCATCTAC | 0.601
15 | GATGATTGTTCTCCCAGCTGATGAATTAAGATTGTCGAGTAAACAAATTTTCCTAATCTTTCTGTTCAAGCGCCATCTAC | 1.03
16 | GATGATTGTTCTCCCAGCTGATGAATTTAGGTTGTCGAGTAAACAAATTTTCCTAATCTTTCTGTTCAAGCGCCATCTAC | 1.05
17 | GATGATTGTTCTCCCAGCTGATGAATTGACCCGGTCGAGTAAACAAATTTTCCTAATCTTTCTGTTCAAGCGCCATCTAC | 0.19
18 | GATGATTGTTCTCCCAGCTGATGAATTCGATTTCTCGAGTAAACAAATTTTCCTAATCTTTCTGTTCAAGCGCCATCTAC | 1.83
19 | GATGATTGTTCTCCCAGCTGATGAATTTGACAAGTCGAGTAAACAAATTTTCCTAATCTTTCTGTTCAAGCGCCATCTAC | 0.261
20 | GATGATTGTTCTCCCAGCTGATGAATTTTCTTCGTCGAGTAAACAAATTTTCCTAATCTTTCTGTTCAAGCGCCATCTAC | 0.27
21 | GATGATTGTTCTCCCAGCTGATGAATTTGGATGATCGAGTAAACAAATTTTCCTAATCTTTCTGTTCAAGCGCCATCTAC | 0.576

Row | Sequence | binding signal (RPM ratio (pull-down/input))
22 | GATGATTGTTCTCCCAGCTGATGAATTGGTTCTTTCGAGTAAACAAATTTTCCTAATCTTTCTGTTCAAGCGCCATCTAC | 0.363
23 | GATGATTGTTCTCCCAGCTGATGAATTGGTGTTCTCGAGTAAACAAATTTTCCTAATCTTTCTGTTCAAGCGCCATCTAC | 2.16
24 | GATGATTGTTCTCCCAGCTGATGAATTCCCAACATCGAGTAAACAAATTTTCCTAATCTTTCTGTTCAAGCGCCATCTAC | 0.727
25 | GATGATTGTTCTCCCAGCTGATGAATTATTTGCATCGAGTAAACAAATTTTCCTAATCTTTCTGTTCAAGCGCCATCTAC | 2.47
26 | GATGATTGTTCTCCCAGCTGATGAATTAGAACGGTCGAGTAAACAAATTTTCCTAATCTTTCTGTTCAAGCGCCATCTAC | 0.227
27 | GATGATTGTTCTCCCAGCTGATGAATTGTCCGAATCGAGTAAACAAATTTTCCTAATCTTTCTGTTCAAGCGCCATCTAC | 0.272
28 | GATGATTGTTCTCCCAGCTGATGAATTGCTTGGATCGAGTAAACAAATTTTCCTAATCTTTCTGTTCAAGCGCCATCTAC | 0.598
29 | GATGATTGTTCTCCCAGCTGATGAATTCTTAACTTCGAGTAAACAAATTTTCCTAATCTTTCTGTTCAAGCGCCATCTAC | 0.283
30 | GATGATTGTTCTCCCAGCTGATGAATTGCCATTGTCGAGTAAACAAATTTTCCTAATCTTTCTGTTCAAGCGCCATCTAC | 1.24
31 | GATGATTGTTCTCCCAGCTGATGAATTACCGCCATCGAGTAAACAAATTTTCCTAATCTTTCTGTTCAAGCGCCATCTAC | 2.45
32 | GATGATTGTTCTCCCAGCTGATGAATTACTCCCATCGAGTAAACAAATTTTCCTAATCTTTCTGTTCAAGCGCCATCTAC | 0.306
33 | GATGATTGTTCTCCCAGCTGATGAATTGTCGATTTCGAGTAAACAAATTTTCCTAATCTTTCTGTTCAAGCGCCATCTAC | 0.547
34 | GATGATTGTTCTCCCAGCTGATGAATTGTGATGATCGAGTAAACAAATTTTCCTAATCTTTCTGTTCAAGCGCCATCTAC | 2.48
35 | GATGATTGTTCTCCCAGCTGATGAATTAGACTATTCGAGTAAACAAATTTTCCTAATCTTTCTGTTCAAGCGCCATCTAC | 0.444
36 | GATGATTGTTCTCCCAGCTGATGAATTTTCATATTCGAGTAAACAAATTTTCCTAATCTTTCTGTTCAAGCGCCATCTAC | 0.425
37 | GATGATTGTTCTCCCAGCTGATGAATTCGGATTATCGAGTAAACAAATTTTCCTAATCTTTCTGTTCAAGCGCCATCTAC | 0.708
38 | GATGATTGTTCTCCCAGCTGATGAATTTTTGGCTTCGAGTAAACAAATTTTCCTAATCTTTCTGTTCAAGCGCCATCTAC | 0.282
39 | GATGATTGTTCTCCCAGCTGATGAATTGGCCGTATCGAGTAAACAAATTTTCCTAATCTTTCTGTTCAAGCGCCATCTAC | 0.451
40 | GATGATTGTTCTCCCAGCTGATGAATTAAAGGCTTCGAGTAAACAAATTTTCCTAATCTTTCTGTTCAAGCGCCATCTAC | 0.436
41 | GATGATTGTTCTCCCAGCTGATGAATTGACAAAATCGAGTAAACAAATTTTCCTAATCTTTCTGTTCAAGCGCCATCTAC | 0.373
42 | GATGATTGTTCTCCCAGCTGATGAATTCTCGTTTTCGAGTAAACAAATTTTCCTAATCTTTCTGTTCAAGCGCCATCTAC | 0.442

Row | Sequence | binding signal (RPM ratio (pull-down/input))
43 | GATGATTGTTCTCCCAGCTGATGAATTTTCAGTCTCGAGTAAACAAATTTTCCTAATCTTTCTGTTCAAGCGCCATCTAC | 0.301
44 | GATGATTGTTCTCCCAGCTGATGAATTGATTGAGTCGAGTAAACAAATTTTCCTAATCTTTCTGTTCAAGCGCCATCTAC | 0.467
45 | GATGATTGTTCTCCCAGCTGATGAATTCACGCCCTCGAGTAAACAAATTTTCCTAATCTTTCTGTTCAAGCGCCATCTAC | 0.741
46 | GATGATTGTTCTCCCAGCTGATGAATTCTCGCGTTCGAGTAAACAAATTTTCCTAATCTTTCTGTTCAAGCGCCATCTAC | 1.27
47 | GATGATTGTTCTCCCAGCTGATGAATTTCCAGAGTCGAGTAAACAAATTTTCCTAATCTTTCTGTTCAAGCGCCATCTAC | 0.159
48 | GATGATTGTTCTCCCAGCTGATGAATTGGGCCGGTCGAGTAAACAAATTTTCCTAATCTTTCTGTTCAAGCGCCATCTAC | 0.372
49 | GATGATTGTTCTCCCAGCTGATGAATTGGCTACCTCGAGTAAACAAATTTTCCTAATCTTTCTGTTCAAGCGCCATCTAC | 0.421
50 | GATGATTGTTCTCCCAGCTGATGAATTGTTCAAGTCGAGTAAACAAATTTTCCTAATCTTTCTGTTCAAGCGCCATCTAC | 0.292
51 | GATGATTGTTCTCCCAGCTGATGAATTGCCGGATTCGAGTAAACAAATTTTCCTAATCTTTCTGTTCAAGCGCCATCTAC | 0.392
52 | GATGATTGTTCTCCCAGCTGATGAATTTAAGGCTTCGAGTAAACAAATTTTCCTAATCTTTCTGTTCAAGCGCCATCTAC | 0.384
53 | GATGATTGTTCTCCCAGCTGATGAATTCTGACGGTCGAGTAAACAAATTTTCCTAATCTTTCTGTTCAAGCGCCATCTAC | 0.284
54 | GATGATTGTTCTCCCAGCTGATGAATTTGATTCTTCGAGTAAACAAATTTTCCTAATCTTTCTGTTCAAGCGCCATCTAC | 1.95
55 | GATGATTGTTCTCCCAGCTGATGAATTTACCGCGTCGAGTAAACAAATTTTCCTAATCTTTCTGTTCAAGCGCCATCTAC | 0.551
56 | GATGATTGTTCTCCCAGCTGATGAATTGGAGAGCTCGAGTAAACAAATTTTCCTAATCTTTCTGTTCAAGCGCCATCTAC | 0.216
57 | GATGATTGTTCTCCCAGCTGATGAATTTAACAGTTCGAGTAAACAAATTTTCCTAATCTTTCTGTTCAAGCGCCATCTAC | 0.464
58 | GATGATTGTTCTCCCAGCTGATGAATTCATACCTTCGAGTAAACAAATTTTCCTAATCTTTCTGTTCAAGCGCCATCTAC | 0.401
59 | GATGATTGTTCTCCCAGCTGATGAATTGGCTGACTCGAGTAAACAAATTTTCCTAATCTTTCTGTTCAAGCGCCATCTAC | 0.845
60 | GATGATTGTTCTCCCAGCTGATGAATTAACCTGATCGAGTAAACAAATTTTCCTAATCTTTCTGTTCAAGCGCCATCTAC | 0.199
61 | GATGATTGTTCTCCCAGCTGATGAATTAGGAGAATCGAGTAAACAAATTTTCCTAATCTTTCTGTTCAAGCGCCATCTAC | 0.195
62 | GATGATTGTTCTCCCAGCTGATGAATTCAACGACTCGAGTAAACAAATTTTCCTAATCTTTCTGTTCAAGCGCCATCTAC | 0.407
63 | GATGATTGTTCTCCCAGCTGATGAATTTTCTGAATCGAGTAAACAAATTTTCCTAATCTTTCTGTTCAAGCGCCATCTAC | 0.193

From publication PMC12820563
